# Assay results taken from ChEMBL document CHEMBL4888484, “Replenishing the malaria drug discovery pipeline: Screening and hit evaluation of the MMV Hit Generation Library 1 (HGL1) against asexual blood stage Plasmodium falciparum ,using a nano luciferase reporter read-out” (2022).
# About 540 (0.36%) of roughly 150,000 compounds showed an effect of 50% or more. Some of the results follow.
# Test system: Plasmodium falciparum
# Assay: Primary screen in NF54 nanoGlo assay, in single point, at 2uM, 72h; a lower Z score goes with more inhibition
# Type: functional, Erythrocyte
# Details: timepoint 72 hour
SMILES,% Inhibition,Z score
COC(=O)c1cccc(OCc2noc(C3CCOC3C(C)C)n2)c1 (configuration not stated),-4%,0.44
O=C1NC[C@H]2CN(S(=O)(=O)C3CCC(F)(F)CC3)CCN12,-2%,0.34
Cc1ccc(C(=O)NCCNc2ncccn2)cn1,0%,-0.04
CCc1ccccc1C(=O)NCC1CCN(c2nc(N)c3cnn(C)c3n2)CC1,1%,-0.22
COC[C@@]1(C)CN(C(=O)NCc2nc(C(F)(F)F)no2)CCO1,-12%,1.33
Cn1nccc1C1(O)CN(C(=O)CCCC2CCCCC2)C1,13%,-1.74
Cc1ccc(C)c(Cn2ccn3nc(-c4ccc(C)c(C)c4)cc3c2=O)c1,-7%,0.91
O=C1N[C@H](CC(=O)N2CCOC(c3ccccc3)C2)C(=O)Nc2ccccc21 (some centres not stated),1%,-0.1
CC1=Nc2ccccc2C12CCN(CCO[C@@H]1CCCCO1)CC2,-1%,0.1
COCC[C@H]1CN(S(=O)(=O)CC2CCCC2)CCO1,-20%,1.97
CCN1CCN([C@H]2CCN(Cc3ccc(OC)c(Cl)c3)C2)CC1,4%,-0.44
C[C@@H](c1cccnc1)N(C)CCNS(C)(=O)=O,-12%,1.09
O=C(NCCc1csc(-c2ccccc2)n1)C1CCN(C(=O)c2ccc(F)c(Cl)c2)CC1,-14%,1.78
CC(C)c1nc(CC(=O)NCC(C)(C)N(C)C)cs1,-10%,1.36
CN(CCCc1nccn1C)C(=O)Nc1ccc2c(c1)OCC(=O)N2C,-2%,0.19
C[C@@H](C(=O)NS(=O)(=O)CC(C)(C)C)c1ccc(F)cc1F,-9%,0.92
Cc1ccc(-c2nc3c(OCc4ccccc4)cccn3c2NC2CCCCC2)cc1,1%,-0.22
CC(C)Cc1noc([C@H](C)NC(=O)N(C)CCN2CCCCCC2)n1,-10%,1.24
Cc1ccc(-c2cc(-c3ccccc3)nc3c2COc2ccc(F)cc2-3)cc1,1%,-0.1
COCCc1ncc(CN2CC(Oc3cccc(OC)c3)C2)cn1,1%,-0.11
Cc1noc(C)c1CN1CC2(CCN(c3cc(N(C)C)ncn3)CC2)CC1=O,-1%,0.24
COCCNC(=O)C[C@H](c1ccccc1Cl)c1cn(Cc2ccccc2)c2ccccc12,-1%,0.1

SMILES,% Inhibition,Z score
CC(=O)N1C[C@@H]2CN(C(=O)c3ccc(Cl)cc3)CCN2C(C)(C)C1,10%,-1.26
O=C(NCc1ccccn1)c1cnc(-c2ccccc2)nc1N1CCC(Cc2ccccc2)CC1,17%,-2.17
O=C1CN(C(=O)CN(CC2CCCCC2)C2CC2)CCN1,-8%,1.03
CC1(NC(=O)NCc2ccc(C3CC3)cc2)CCOC1C1CC1 (configuration not stated),-4%,0.67
O=C(NCC1(N2CCOCC2)CC1)N1CCC[C@H]1c1cccc(F)c1,3%,-0.28
Cc1cc(NC(=O)COc2ccccc2Br)c[nH]c1=O,5%,-0.6
CC[C@@H](CO)NCc1c[nH]nc1C(C)(C)C,-10%,1.38
CCc1nc(C)c(C(=O)N[C@H]2C[C@H]3OCC[C@@H]23)o1,-20%,3.09
N#Cc1cnc(NCCCOC2CCCC2)nc1N,-2%,0.44
Cc1ccc(Cn2cccc2C(=O)C(=O)Nc2cccc3ccccc23)cc1C,-5%,0.43
Cc1ccccc1-c1cncc(C(=O)N2CCCCC2)c1,-1%,0.12
C[C@@H](c1ccc(-c2nc(N)nc3[nH]cnc23)cc1)N1CCCCC1,-9%,1.19
Cc1noc(C(C)C)c1-c1nc(-c2ccc(Br)o2)no1,-20%,2.13
CC1(C)NC(=O)N(Cc2noc(-c3cnccn3)n2)C1=O,-5%,1.04
O=C(CN1CCCCS1(=O)=O)N[C@@H]1Cc2ccccc2[C@H]1O,-5%,0.67
CCOC(=O)Cc1csc(NC(=O)N[C@@H](CC)c2nnc3n2CCCCC3)n1,-5%,0.79
CC(C)Oc1nccnc1N1CCC[C@H](CO)CC1,-1%,0.14
CN(CCc1ncccn1)CC(=O)NC1(C#N)CCCCC1,-7%,1.13
COc1cccc(CN2CC[C@H](N(CCc3noc(C4CCC4)n3)C(C)=O)C2)n1,0%,-0.01
Cc1ccc(Cl)c(CN2CCN3C(=O)OC[C@H]3C2)c1F,8%,-1.08
Cc1ccc(NC(=O)CN(C)S(=O)(=O)c2c[nH]c(C(=O)N3CCCC3)c2)c(Br)c1,-19%,1.87
CNC(=O)c1nc[nH]c1-n1nc(-c2ccc(C)cc2)cc1N,-5%,0.82

SMILES,% Inhibition,Z score
Cc1nnc(CN2CCN(Cc3nnc(C)s3)[C@H](c3cnn(C)c3)C2)s1,14%,-1.79
Cc1ccc(NC2(C(=O)N3CCNC(=O)[C@@H]3CCO)CCCC2)cc1,-3%,0.44
CC(=O)N[C@H]1C[C@@H](c2ccc(Cl)cc2)O[C@@H](c2cnn3cccnc23)C1,1%,-0.16
c1cc(-c2ccc3oc(C4CC4)nc3c2)cc(-c2cc[nH]n2)c1,-9%,1.25
N#Cc1ccc(OCc2nc3ccccc3o2)c(Cl)c1,4%,-0.77
Cc1cc(C(=O)N2CCCn3cncc3C2)cc2sc(N)nc12,-17%,1.53
Cc1noc(C)c1C(C)NS(=O)(=O)CC(C)c1ccccc1 (configuration not stated),-28%,5.33
O=C1N[C@@H](c2cc(Cl)c3c(c2)OCCCO3)Nc2ncccc21,-1%,0.14
CCc1cc(C(=O)N(CC)c2ccccc2)c2c(C)noc2n1,32%,-4.35
CCCc1ccc(OCCNC(=O)Cn2nc(C)cc2N)cc1,-9%,0.97
Cc1cc(C)cc(S(=O)(=O)NCc2nc3cccnc3n2Cc2ccc(F)cc2)c1,1%,-0.12
O=C(CCC(F)(F)F)c1cccnc1,5%,-0.77
C[C@@H]1CN(Cc2nccn2C)C[C@]1(C)O,-10%,1.91
Cc1cc(C)c(-c2cnc(-n3cnnc3)c(C)c2)c(C)c1,-3%,0.65
CCC1CN(Cc2ncccn2)C(CC)CN1Cc1ncccn1 (configuration not stated),-18%,1.93
CNS(=O)(=O)c1cccc(NC(=O)c2ccn(C)c2C)c1,-6%,1.08
Fc1ccc(CNCc2cccnc2N2CCN(c3ccccn3)CC2)cc1F,4%,-0.53
O=C(c1ccc2nsnc2c1)N1CCN(C(=O)c2cc3n(n2)CCCC3)CC1,-5%,0.78
Cc1cccc(C(=O)N2C(C(=O)NCC3CCCO3)COC23CCC(C)CC3)c1 (configuration not stated),0%,0.03
Cc1cccc(S(=O)(=O)N2CCCO2)c1Cl,-9%,1.88
Cc1ccc([C@H](CNC(=O)c2nn(C)cc2C)N2CCCC2)o1,-7%,1.3
CCn1cc(Br)cc1C(=O)N1CC[C@H](C(=O)O)C1,-19%,2.27

SMILES,% Inhibition,Z score
CC1CN(Cc2cnn(C3(C)CCS(=O)(=O)C3)c2)c2ccccc21 (configuration not stated),4%,-0.6
CC(C)Cc1noc(CNCCCNS(C)(=O)=O)n1,-5%,0.45
O=C(CN1CCCC1)Nc1cccc2nonc12,-1%,0.22
Cc1nc(C)c(C(=O)NCCOCc2ccc(Cl)cc2Cl)o1,-7%,0.94
CC(=O)N1C[C@@H]2C[C@H](NC(=O)c3ccc(C)cn3)CN2C(=O)[C@@H]1C,-5%,0.74
COc1cc2c(cc1OC)CN(C(=O)CN(C)c1ccc(O)cc1)CC2,18%,-2.28
Cc1ccccc1CNC(=O)c1csc(-c2ccnc(N3CCOCC3)c2)n1,-3%,0.36
CC1COCC1NC1c2ccccc2CC1O (configuration not stated),-1%,0.17
O=C(c1ccnc2[nH]c(CC3CC3)nc12)N1CCOCC12CCC2,-3%,0.48
Cc1cc2n(n1)CCC(=O)N2CC(=O)NC1CCCC1,-13%,1.27
CNC(=O)c1[nH]nc2c1CN(CC(=O)Nc1cccc(C)c1C)CC2,-5%,0.76
COCC1CCCN(C(=O)CCC2(Cc3ccc4ccccc4c3)CCC(=O)N2)C1 (configuration not stated),4%,-0.53
Cc1cc(C)n(CCN(C)C(=O)CCN2CCCCCC2=O)n1,-8%,1.4
C[C@@H](CC(=O)OCC(C)(C)C)N1CCCCC1=O,-4%,0.52
Cc1cnc(C(C)NC(=O)N2CCOCC2c2ccccc2)s1 (configuration not stated),-13%,1.07
Cc1ccc(N(C)CC2(CO)CC2)nn1,-4%,0.5
Cc1ccc(S(=O)(=O)c2cn(Cc3ccccc3)c3cc(N4CCCCC4)c(F)cc3c2=O)cc1,-24%,2.28
CC(=O)N[C@@H]1C[C@H](Cc2ccccc2)O[C@H](c2cc(C(C)(C)C)[nH]n2)C1,-2%,0.27
Cn1c([C@@H]2CCCO2)nc2cc(NC(=O)CC3CCCC3)cc(C(=O)NCCN3CCOCC3)c21,-2%,0.31
CCN=C(NCC)NCc1cc2sccc2s1,4%,-0.7
